This sample is rich in variants without activity.
B1: TPR 5TU (parent)
chain: GGAUCUUCUCGAUCUAACAAAAAAGACAAAUCUGCCACAAAGCUUGAGAGCAUCUUCGGAUGCAGAGGCGGCAGCCUUCGGUGGCGCGAUAGCGCCAACGUUCUCAACUAUGACACGCAAAACGCGUGCUCCGUUGAAUGGAGUUUAUCAUG

Variants of: B1
Assay: polymerase ribozyme fitness, log enrichment relative to wild type (log ratio); higher = more active; in vitro selection for triplet polymerase activity
How it was run: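 Fitness compares each genotype's enrichment to that of the wild type on a logarithmic scale, averaging replicates with inverse-variance weights. The logarithm is base 2. Enrichment came from Illumina sequencing of input and output libraries after one triplicate round of in vitro selection, which included frozen incubation at −7 °C, of PCR-built, transcribed mutant libraries of each subunit of a heterodimeric triplet polymerase ribozyme. Only genotypes with ≥10 input reads and ≥1 read per output were kept.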

| Variant | polymerase ribozyme fitness (log ratio) |
| --- | --- |
| U31C A97G U135C U146C | -1.76 |
| U31C C32A G67A G100U U134G G141U | ≤ -4.2 |
| U31C C32A G80C G81A A115C C118G G133A | ≤ -4.2 |
| U31C C32A G84U A98G C108A G140A | ≤ -4.2 |
| U31C C32G A52U C85U A91U A119C U139G A150G | ≤ -4.2 |
| U31C C35A C105A | ≤ -4.2 |
| U31C C35G C36U G68C C69U G92A C118G G133U G140C A147G C149U | ≤ -4.2 |
| U31C C35U G68C G92U U104A A115U A119C G143A | ≤ -4.2 |
| U31C C36G A73U G143U C149A | ≤ -4.2 |
| U31C C36U C38G G81A C85U A107G C108A | ≤ -4.2 |
| U31C C38A C103A C116U A119U G141U U146A | ≤ -4.2 |
| U31C C38G A47G C51A U56A G83C U146C U148C | ≤ -4.2 |
| U31C C38U C87G A115G | ≤ -4.2 |
| U31C C43U G50A U78G A106C | ≤ -4.2 |
| U31C C54G C76U C79A A89G U127C | ≤ -4.2 |
| U31C C57A G83U C118U G124U A142C | -2.24 |
| U31C C63U G80U C103G G140U | ≤ -4.2 |
| U31C C69G C96U G117U C118G | -1.49 |
| U31C C76G C85U G133C C149A | ≤ -4.2 |
| U31C C76U C93G U102C U145G | ≤ -4.2 |
| U31C C76U C96U G136C U144C U148C | -3.9 |
| U31C C79A | ≤ -4.2 |
| U31C C93G U104G A120U | ≤ -4.2 |
| U31C C93U A120G | 0.174 |

| Variant | polymerase ribozyme fitness (log ratio) |
| --- | --- |
| U31C C93U C131U | 1.12 |
| U31C G34A C69G C85U U134C | -1.39 |
| U31C G34A U78C G83C U145G | ≤ -4.2 |
| U31C G42A U44G A60G A66G U82A C85A G128A | ≤ -4.2 |
| U31C G42C C54G U139C C149G | ≤ -4.2 |
| U31C G42C G68C G92U | ≤ -4.2 |
| U31C G48C G67A C95U A142U U144C G152A | ≤ -4.2 |
| U31C G48U G59C C69G U77A | ≤ -4.2 |
| U31C G58A G94U G143U | -2.9 |
| U31C G59C G68C G83A C99U | ≤ -4.2 |
| U31C G65U C69U G86A U151A | ≤ -4.2 |
| U31C G68U C85G C99G A106C A142C | ≤ -4.2 |
| U31C G71A G86C C118A U151G | ≤ -4.2 |
| U31C G83C C87U U104G U134A G140A | ≤ -4.2 |
| U31C G83C U111C G152A | -3.66 |
| U31C G86U C96U | -0.694 |
| U31C G94C C105A | -1.61 |
| U31C U44G U77C C93U G117A A138C U145G U151A | ≤ -4.2 |
| U31C U45A A97U G117A | -4.09 |
| U31C U45A G59C C96A G140C U151A | ≤ -4.2 |
| U31C U55A G67C G80A C85G | ≤ -4.2 |
| U31C U55A G86C | -2.47 |
| U31C U55A G136U A150G | -1.81 |
| U31C U55A U101C | 0.401 |

| Variant | polymerase ribozyme fitness (log ratio) |
| --- | --- |
| U31C U56A G58C A98U C149U | 0.414 |
| U31C U56G C123A G136C | -2.61 |
| U31C U102A | 0.128 |
| U31G A37C G126U | -2.65 |
| U31G A39C G50A G92U G117A G140U U145A A147G | ≤ -4.2 |
| U31G A39U C85G U102G | ≤ -4.2 |
| U31G A40G U61A C87U G112U G141C | ≤ -4.2 |
| U31G A49C C54A | ≤ -4.2 |
| U31G A52C A64U C75G U90C C99U U134G | ≤ -4.2 |
| U31G A52C C93A C95G G117A C123U | ≤ -4.2 |
| U31G A52C G83A | -2.81 |
| U31G A52U A60G A98G | -4 |
| U31G A60G G152U | -3.16 |
| U31G A97C A106C | ≤ -4.2 |
| U31G A98G A138U | ≤ -4.2 |
| U31G C32A U101C G126A U148C | ≤ -4.2 |
| U31G C32G A47C C95G A121C U134A G141C | ≤ -4.2 |
| U31G C32G G58U G83A A89G U144G | ≤ -4.2 |
| U31G C32U A41G G48A U61A C108G G141A G143C | ≤ -4.2 |
| U31G C35A C54U G62A C75G | ≤ -4.2 |
| U31G C35U A60U A115G | -3.22 |
| U31G C35U C57U G117A | -0.0701 |
| U31G C51G C63A A66G G83C A91U G124A A137U | ≤ -4.2 |
| U31G C54A G88A G126A G141A | ≤ -4.2 |

| Variant | polymerase ribozyme fitness (log ratio) |
| --- | --- |
| U31G C57G A60C C87G | ≤ -4.2 |
| U31G C57G G58A A106G U111G G143U U144A | ≤ -4.2 |
| U31G C63U G86A A138G | ≤ -4.2 |
| U31G C69U U104C | ≤ -4.2 |
| U31G C75G C96G U130G | ≤ -4.2 |
| U31G C75U U77C G94U G124A C125A | ≤ -4.2 |
| U31G C76A C93G | ≤ -4.2 |
| U31G C79U G140A A150U | ≤ -4.2 |
| U31G C85U | 0.998 |
| U31G C87G U145G | ≤ -4.2 |
| U31G C87U U127A | -3.89 |
| U31G C87U U135G | ≤ -4.2 |
| U31G C95A C123G | 0.831 |
| U31G C99U U145G | -0.861 |
| U31G C103G A106U | ≤ -4.2 |
| U31G C125U U130A | ≤ -4.2 |
| U31G G42C C51U G94A U102C G124C G136U G152A | ≤ -4.2 |
| U31G G42U G58U G59A G86U U104G C131G G136C | ≤ -4.2 |
| U31G G46C G50U C95G C116U C131G A142U | ≤ -4.2 |
| U31G G48C G50A C96A A120U U145A | ≤ -4.2 |
| U31G G48C U56C G86C C96G | ≤ -4.2 |
| U31G G50C A52C C57U | ≤ -4.2 |
| U31G G50U U82C A106C | ≤ -4.2 |
| U31G G58A C85A C114G A115U | -4.05 |

| Variant | polymerase ribozyme fitness (log ratio) |
| --- | --- |
| U31G G62A C95U U104G C118U | ≤ -4.2 |
| U31G G71U | ≤ -4.2 |
| U31G G74A G81A U82G | ≤ -4.2 |
| U31G G81U C87G U104G G128C | ≤ -4.2 |
| U31G G83A A138G | ≤ -4.2 |
| U31G G124C C149G | ≤ -4.2 |
| U31G U33A A40C C96G A113C G124U U148A | ≤ -4.2 |
| U31G U33A A60G G81C C93A | ≤ -4.2 |
| U31G U33A U55G C99U U111C | ≤ -4.2 |
| U31G U44A C69A G71U | ≤ -4.2 |
| U31G U44G C75U C96A C131G | ≤ -4.2 |
| U31G U45G A47C C79A A89C A97G | ≤ -4.2 |
| U31G U53A C95U U135G | -3.6 |
| U31G U56A G136A A147C | -0.143 |
| U31G U56G C85G U101G A120U G140U | ≤ -4.2 |
| U31G U77G C93U A137C | ≤ -4.2 |
| U31G U90C A137C U148G C149U | ≤ -4.2 |
| U31G U90G | ≤ -4.2 |
| C32A | -2.96 |
| C32A A37C | ≤ -4.2 |
| C32A A37C A52G C75A C87G C105G A120U | ≤ -4.2 |
| C32A A39C G59A C72A A91G | ≤ -4.2 |
| C32A A39U C79A C85A C129G | ≤ -4.2 |
| C32A A40G G50A C93G U151C | ≤ -4.2 |

| Variant | polymerase ribozyme fitness (log ratio) |
| --- | --- |
| C32A A41C G94U C103A C118U | ≤ -4.2 |
| C32A A47C C51U C76A G81U G83A | ≤ -4.2 |
| C32A A47U C87U | ≤ -4.2 |
| C32A A49U C63U A97U U109G | ≤ -4.2 |
| C32A A52C A73G G81U C93G U111G | ≤ -4.2 |
| C32A A52G C75A G86U C99U C114U C125U | ≤ -4.2 |
| C32A A52G G88A | ≤ -4.2 |
| C32A A66G G84C U144A G152A | ≤ -4.2 |
| C32A A89G C95U U101G U134G G141C | ≤ -4.2 |
| C32A A97U U127A | ≤ -4.2 |
| C32A C38A U44A C63U U134A | ≤ -4.2 |
| C32A C43U A52G G86A A137G U145C | ≤ -4.2 |
| C32A C43U C57U C79U A89C G92U C103A U151C | ≤ -4.2 |
| C32A C43U C85U G92A A147C | ≤ -4.2 |
| C32A C51A C54A G92A A97U U146C | ≤ -4.2 |
| C32A C51G C72U C85G A97C U101G | ≤ -4.2 |
| C32A C51U G58U | ≤ -4.2 |
| C32A C54A U109A C132G | ≤ -4.2 |
| C32A C54G G58A G74A C125U A147C | ≤ -4.2 |
| C32A C54U G58C C85A C105G A113C G136U U139C | ≤ -4.2 |
| C32A C72G G92C A150C | ≤ -4.2 |
| C32A C76G C87G A91U A98G U102A | ≤ -4.2 |
| C32A C87A | ≤ -4.2 |
| C32A C87U | -3.44 |

| Variant | polymerase ribozyme fitness (log ratio) |
| --- | --- |
| C32A C96U | -4.11 |
| C32A G42A G59U C85A U101G C108U U151C | ≤ -4.2 |
| C32A G42U U77C A119G U148G | ≤ -4.2 |
| C32A G46A C79G C85G G100U A121G | ≤ -4.2 |
| C32A G46A U55A U90C C96U C105G A106U A113U A138G C149A | ≤ -4.2 |
| C32A G46C U53A G67U C76A G84A | ≤ -4.2 |
| C32A G50A C54U U55G G68A C103A | ≤ -4.2 |
| C32A G50U A64C G94A | ≤ -4.2 |
| C32A G50U U55A C85A | ≤ -4.2 |
| C32A G58C | ≤ -4.2 |
| C32A G58U | ≤ -4.2 |
| C32A G59A G83A A97G C105U U134A | ≤ -4.2 |
| C32A G59A G94A A97U C129A A137C | ≤ -4.2 |
| C32A G67A G83A | ≤ -4.2 |
| C32A G80A A121G G133C | ≤ -4.2 |
| C32A G83U A98G A120U A150C | ≤ -4.2 |
| C32A G83U A106U A115G G140C | ≤ -4.2 |
| C32A G86A C93A C114A | ≤ -4.2 |
| C32A G86U | ≤ -4.2 |
| C32A G86U A97G C105U U135G G140C | ≤ -4.2 |
| C32A U44A U55A G86U C87U U127C A138U G143U U151A | ≤ -4.2 |
| C32A U44C A49U G94C C103G | ≤ -4.2 |
| C32A U44G U56A G124A C129A G141U | ≤ -4.2 |
